# The supplement of paper PMC8728848
# The other results are listed elsewhere or left out.
# B1: Pwp2 (Candida glabrata) (protein)
# chain: MGSSHHHHHHSSGLVPRGSHMASKNPVELNNVCTFPNDYGRIPGFTVLVGRLGLLISASDYKELLRYPGAFLIATQDTMTTSPNFELTGFPFFTGLYGLTVFPLDLLVELRGYFVPPNSGQYTFTLSDSDDAAIIFLGNPSAFPCGDLQNWPKPSEEDITVTDHLFPSRTLYLIEGVAYPMRIAYYNGIGAGRLNAAFIDPSGTRHTNWEGYIWQYDPCSTCTYS
# Columns and labels:
# Assay in all cases: glycan array binding signal (z-score within array); higher = stronger binding
# Details in all cases: glycan notation: IUPAC condensed, linker removed
# [1] = molecular target: Gal(b1-4)Glc
# Summary of the method: (§1)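 Glycan array binding is given as a within-array Z-score, which can be read as non-binding when negative. The arrays, 3228 of them, came from the Consortium for Functional Glycomics database and were retained only where the protein sequence was available. Z-scores were averaged across arrays of the same protein sequence at different concentrations or buffers and across linkers.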
# [2] = molecular target: Gal(b1-4)Glc6S
# Summary of the method: as §1
# [3] = molecular target: Gal(b1-4)GlcNAc
# Summary of the method: as §1
# [4] = molecular target: Gal(b1-4)GlcNAc(a1-6)Gal(b1-4)GlcNAc
# Summary of the method: as §1
# [5] = molecular target: Gal(b1-4)GlcNAc(b1-2)Man
# Summary of the method: as §1
# [6] = molecular target: Gal(b1-4)GlcNAc(b1-2)Man(a1-3)Man(b1-4)GlcNAc(b1-4)GlcNAc
# Summary of the method: as §1
# [7] = molecular target: Gal(b1-4)GlcNAc(b1-2)Man(a1-3)[Gal(b1-4)GlcNAc(b1-2)Man(a1-6)]Man(b1-4)GlcNAc(b1-4)GlcNAc
# Summary of the method: as §1
# [8] = molecular target: Gal(b1-4)GlcNAc(b1-2)Man(a1-3)[Gal(b1-4)GlcNAc(b1-2)Man(a1-6)]Man(b1-4)GlcNAc(b1-4)[Fuc(a1-6)]GlcNAc
# Summary of the method: as §1
# [9] = molecular target: Gal(b1-4)GlcNAc(b1-2)Man(a1-3)[Gal(b1-4)GlcNAc(b1-2)Man(a1-6)][Gal(b1-4)GlcNAc(b1-4)]Man(b1-4)GlcNAc(b1-4)[Fuc(a1-6)]GlcNAc
# Summary of the method: as §1
# [10] = molecular target: Gal(b1-4)GlcNAc(b1-2)Man(a1-3)[Gal(b1-4)GlcNAc(b1-2)Man(a1-6)][GlcNAc(b1-4)]Man(b1-4)GlcNAc(b1-4)[Fuc(a1-6)]GlcNAc
# Summary of the method: as §1
# [11] = molecular target: Gal(b1-4)GlcNAc(b1-2)Man(a1-3)[GlcNAc(b1-2)Man(a1-6)]Man(b1-4)GlcNAc(b1-4)GlcNAc
# Summary of the method: as §1
# [12] = molecular target: Gal(b1-4)GlcNAc(b1-2)Man(a1-3)[GlcNAc(b1-4)][Gal(b1-4)GlcNAc(b1-2)Man(a1-6)]Man(b1-4)GlcNAc(b1-4)GlcNAc
# Summary of the method: as §1
# [13] = molecular target: Gal(b1-4)GlcNAc(b1-2)Man(a1-3)[Man(a1-6)]Man(b1-4)GlcNAc(b1-4)GlcNAc
# Summary of the method: as §1
# [14] = molecular target: Gal(b1-4)GlcNAc(b1-2)Man(a1-6)Man(b1-4)GlcNAc(b1-4)GlcNAc
# Summary of the method: as §1
# [15] = molecular target: Gal(b1-4)GlcNAc(b1-2)Man(a1-6)[GlcNAc(b1-2)Man(a1-3)]Man(b1-4)GlcNAc(b1-4)GlcNAc
# Summary of the method: as §1
# [16] = molecular target: Gal(b1-4)GlcNAc(b1-2)Man(a1-6)[Man(a1-3)]Man(b1-4)GlcNAc(b1-4)GlcNAc
# Summary of the method: as §1
# [17] = molecular target: Gal(b1-4)GlcNAc(b1-2)[Gal(b1-4)GlcNAc(b1-4)]Man(a1-3)[Gal(b1-4)GlcNAc(b1-2)Man(a1-6)]Man(b1-4)GlcNAc(b1-4)GlcNAc
# Summary of the method: as §1
# [18] = molecular target: Gal(b1-4)GlcNAc(b1-2)[Gal(b1-4)GlcNAc(b1-4)]Man(a1-3)[Gal(b1-4)GlcNAc(b1-2)[Gal(b1-4)GlcNAc(b1-6)]Man(a1-6)]Man(b1-4)GlcNAc(b1-4)GlcNAc
# Summary of the method: as §1
# [19] = molecular target: Gal(b1-4)GlcNAc(b1-2)[Gal(b1-4)GlcNAc(b1-4)]Man(a1-3)[GlcNAc(b1-4)][Gal(b1-4)GlcNAc(b1-2)Man(a1-6)]Man(b1-4)GlcNAc(b1-4)GlcNAc
# Summary of the method: as §1
# [20] = molecular target: Gal(b1-4)GlcNAc(b1-2)[Gal(b1-4)GlcNAc(b1-4)]Man(a1-3)[GlcNAc(b1-4)][Gal(b1-4)GlcNAc(b1-2)[Gal(b1-4)GlcNAc(b1-6)]Man(a1-6)]Man(b1-4)GlcNAc(b1-4)GlcNAc
# Summary of the method: as §1
# [21] = molecular target: Gal(b1-4)GlcNAc(b1-2)[Gal(b1-4)GlcNAc(b1-6)]Man(a1-6)[Gal(b1-4)GlcNAc(b1-2)Man(a1-3)]Man(b1-4)GlcNAc(b1-4)GlcNAc
# Summary of the method: as §1
# [22] = molecular target: Gal(b1-4)GlcNAc(b1-2)[Gal(b1-4)GlcNAc(b1-6)]Man(a1-6)[Gal(b1-4)GlcNAc(b1-2)Man(a1-3)]Man(b1-4)GlcNAc(b1-4)[Fuc(a1-6)]GlcNAc
# Summary of the method: as §1
binder,measurement,setting,value
B1,glycan array binding signal (z-score),[1],-0.439
same,glycan array binding signal (z-score),[2],-0.503
same,glycan array binding signal (z-score),[3],-0.286
same,glycan array binding signal (z-score),[4],0.426
same,glycan array binding signal (z-score),[5],-0.448
same,glycan array binding signal (z-score),[6],-0.448
same,glycan array binding signal (z-score),[7],-1.15
same,glycan array binding signal (z-score),[8],-0.46
same,glycan array binding signal (z-score),[9],-0.627
same,glycan array binding signal (z-score),[10],-0.477
same,glycan array binding signal (z-score),[11],0.19
same,glycan array binding signal (z-score),[12],-0.617
same,glycan array binding signal (z-score),[13],-0.014
same,glycan array binding signal (z-score),[14],1.94
same,glycan array binding signal (z-score),[15],-0.358
same,glycan array binding signal (z-score),[16],-0.14
same,glycan array binding signal (z-score),[17],1.09
same,glycan array binding signal (z-score),[18],-0.603
same,glycan array binding signal (z-score),[19],-0.295
same,glycan array binding signal (z-score),[20],-0.248
same,glycan array binding signal (z-score),[21],-0.407
same,glycan array binding signal (z-score),[22],0.691
